# Whole data set: some 33,000 sequences, median “E-score (-0.5 to 0.5)” near -0.056, cut for the highest 2% near 0.38. The list shows a part of the results.
# Target: Stb4 (UniProt P50104)
# Experiment: PBM E-score (8-mer binding enrichment) (E-score (-0.5 to 0.5)); higher = stronger / more preferred TF binding; most listed sequences are background and not binding sites
# Conditions: protein concentration: 200 nM; construct: GST-DNA-binding domain
# Summary of the method: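 E-scores (a modified Wilcoxon-Mann-Whitney statistic) were assigned by the Universal PBM Analysis Suite to every ungapped eight-base word pooled with its reverse complement. The input came from universal all-10-mer Agilent arrays made double-stranded by primer extension and probed with GST-tagged yeast transcription factors at about 100-200 nM. Fluorescent anti-GST detected bound protein, and masliner normalised the scans.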
row,Sequence,PBM E-score
1,GCATAACA,-0.262
2,CACGAGAA,-0.167
3,CCATCGGA,0.369
4,CTCGTGAA,-0.127
5,GCGGTTAA,0.17
6,GACCTAGC,-0.118
7,GTGAACGA,-0.0944
8,GCTTTTAC,0.171
9,ATCTTGGA,-0.115
10,ACTCTAGA,0.00903
11,CATGCCCA,-0.213
12,ACGAAAGG,-0.092
13,CCCTAATC,-0.0442
14,GCGGCCGC,0.114
15,ACACTCAT,-0.112
16,ACGAAGTC,-0.264
17,AGCGTGTG,-0.0283
18,CAACGACG,-0.261
19,ATAAACGA,0.0133
20,CTGAATCA,-0.223
21,GCATGGAC,-0.0106
22,CAGACCGG,0.14

row,Sequence,PBM E-score
1,CGAGACAC,0.134
2,AGGCCAAC,0.0393
3,GTTGTTTA,-0.176
4,CTGAATGA,-0.0923
5,AAAGCCGT,0.132
6,GCACGGGC,0.0264
7,ATCTTTTA,-0.123
8,ACGGTCGA,-0.00879
9,CGCATGCG,-0.0121
10,AACCGTTG,-0.245
11,CGTGGACA,-0.063
12,ACAGGGCC,0.0444
13,CTACAGCC,-0.0644
14,CTAGGAAC,-0.00703
15,AAAACTGC,-0.147
16,AACGTAAA,-0.0553
17,ATAGGTCC,0.00769
18,ATGATGTG,-0.0463
19,AGATTTTC,-0.0721
20,CGTCAGAC,0.0382
21,CACGGCAG,0.137
22,AACGGCGC,-0.114

row,Sequence,PBM E-score
1,GTCTTTTA,-0.112
2,CGTCCGAA,0.336
3,ACGCGTCT,-0.252
4,GACGTCAA,-0.249
5,AACCCTAA,0.0317
6,AGCCCCTG,-0.257
7,ATAGAAGG,-0.156
8,GCAAGTGC,-0.253
9,CTGCGCTC,-0.211
10,AGTGCCCG,0.0974
11,CGACGCAG,-0.0523
12,TCCCGTAA,0.148
13,AACTGCAC,-0.0632
14,AACAGCTG,-0.172
15,GCTGAAGA,-0.16
16,AGAGAAAG,-0.277
17,CAGCTACC,0.0203
18,ATTGCTCA,-0.00681
19,CAATCCGG,0.244
20,AGATTGTG,-0.134
21,ATTTGCTC,-0.0327
22,TCTCGACA,-0.142

row,Sequence,PBM E-score
1,CACCTAAC,0.114
2,CTGGTTTA,-0.149
3,GCTTTCGA,-0.171
4,AGTACACA,0.0187
5,CCACTTCG,0.188
6,CAACTGTA,-0.0781
7,ATGTCAGG,-0.0873
8,CCCGAGGA,0.388
9,ATTGTTTC,0.168
10,GCTCCCAC,-0.0956
11,AGCTGCCA,-0.13
12,CAAACTAC,-0.279
13,CGTTCCGC,0.412
14,CCAGATCG,0.0771
15,CCCACTTA,-0.205
16,CGCAACAG,-0.121
17,ATTTTCAA,0.133
18,ACATAGAA,-0.0215
19,CAGCGGAC,-0.0345
20,AAGACAAA,-0.252

# Source: the supplement of paper PMC3334620
